{"source": "patent US20220389113A1", "about": "“BINDING PROTEINS TO CUB DOMAIN-CONTAINING PROTEIN (CDCP1)” (COMMONWEALTH SCIENTIFIC AND INDUSTRIAL RESEARCH ORGANISATION, priority 2019, published 2022)", "molecules": {"B1": {"name": "human/mouse chimeric 10D7 antibody: 10D7 VH and VL cloned into human constant region heavy and light chains; SEQ ID NO:12 and 13 (antibody)", "heavy": "EVQLQQFGAELVKPGASVKISCKASGYSFSDFNIEWLKQSHGKSLEWIGDINPNYDSTNYNQKFKGRATLTVDKSSSTAYMEVRSLTSEDTAVYYCARLGYGYAMDYWGQGTSVTVSS[human IgG1 constant region not spelt out]", "light": "IVMTQSPQSMSMSVGERVTLSCKASENVGAYVSWFQQKPDQSPKLLILAASNRYTGVPARFIGSGSATDFTLTISSVQAEDLADYHCGQSYTYPYTFGGGTKLEIKRADAAPTVSIFPPSDEQLKSGTASVVCLLNNFYPREAKVQWKVDNALQSGNSQESVTEQDSKDSTYSLSSTLTLSKADYEKHKVYACEVTHQGLSSPVTKSFNRGEC", "modifications": "heavy chain of chimeric 10D7 antibody; light chain of chimeric 10D7 antibody"}}, "key": {"[1]": {"test_system": "TKCC05 pancreatic cancer cells and HEY ovarian cancer cells", "experiment": "Flow cytometry with Atto-550 labelled antibodies", "type": "binding, human", "conditions": "10 ng/ml, 1 h at 4° C.", "method": "Antibody 10D7, Chimeric hu/mu-10D7 and isotype control IgG antibodies were conjugated with fluorophore Atto-550 as per manufacturer instruction (Sigma, Atto 550 Protein labelling kit, 51146-1KT). Cancer cells (TKCC05, pancreatic cancer cells expressing CDCP1 mainly under its cleaved form; HEY, ovarian cancer cells expressing CDCP1 mainly under its full length form) were lifted using non-enzymatic solution (versene, to avoid receptor proteolysis) and blocked for 30 min using PBS+0.5% BSA (w/v).\nCells were washed 3 times using cold PBS before to be analysed by flow cytometry in parallel to unstained cells (incubated in blocking buffer in absence of antibody)."}, "[2]": {"biological_target": "T1, CDCP1 in HEY ovarian cancer cells (Homo sapiens, UniProt Q9H5V8)", "T1 construct": "cell surface CDCP1 levels about half those of endogenous expressing HEY cells; endogenous in cells; host or cells: HEY (ATCC) epithelial ovarian cancer cells", "T1 sequence (Q9H5V8 30-836)": "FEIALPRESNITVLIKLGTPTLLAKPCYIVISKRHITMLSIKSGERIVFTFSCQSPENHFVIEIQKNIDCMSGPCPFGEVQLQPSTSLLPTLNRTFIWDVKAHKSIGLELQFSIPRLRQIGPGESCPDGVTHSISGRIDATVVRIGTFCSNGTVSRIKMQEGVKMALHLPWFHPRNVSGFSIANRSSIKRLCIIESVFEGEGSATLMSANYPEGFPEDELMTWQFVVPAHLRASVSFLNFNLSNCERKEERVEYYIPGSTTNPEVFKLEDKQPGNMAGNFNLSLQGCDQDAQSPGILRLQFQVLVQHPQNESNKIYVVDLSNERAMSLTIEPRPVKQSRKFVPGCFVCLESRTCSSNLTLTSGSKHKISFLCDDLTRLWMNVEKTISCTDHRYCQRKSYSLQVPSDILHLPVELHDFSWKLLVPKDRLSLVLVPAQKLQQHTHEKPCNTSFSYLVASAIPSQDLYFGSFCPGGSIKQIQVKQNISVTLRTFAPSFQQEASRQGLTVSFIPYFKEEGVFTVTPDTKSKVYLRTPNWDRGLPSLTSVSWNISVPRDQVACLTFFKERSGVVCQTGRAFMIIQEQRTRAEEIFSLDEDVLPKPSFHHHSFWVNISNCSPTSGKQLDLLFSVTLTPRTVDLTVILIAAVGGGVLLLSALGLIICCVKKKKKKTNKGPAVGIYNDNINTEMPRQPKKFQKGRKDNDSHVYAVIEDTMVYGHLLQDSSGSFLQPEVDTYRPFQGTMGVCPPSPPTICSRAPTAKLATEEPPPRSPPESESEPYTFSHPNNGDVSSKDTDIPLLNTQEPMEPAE", "experiment": "CDCP1 degradation assay in ovarian cancer cells (Western blot)", "type": "cell-based", "conditions": "5 μg/ml, 24h and 48h", "method": "Ovarian cancer cells (HEY) were seeded in 6 well plate in growth medium (200,000 per well). Once confluence was reached about 70%, cells were treated with 5 μg/ml of isotype IgG control, 10D7 or chimeric hu/mu-10D7 antibody in a final volume of 2 ml. Cells were lysed using RIPA buffer after 24h and 48h treatment. In addition, to investigate the re-expression of CDCP1 after 48h antibody treatment, the medium was replaced with fresh growth medium not containing any treatment for 24 and 48h (+24h and +48h respectively) and cell were lysed in RIPA buffer."}, "[3]": {"test_system": "CDCP1 expressing TKCC05 pancreatic cancer cells", "experiment": "Flow cytometry binding of chimeric 10D7 to pancreatic cancer cells", "design": "species or system human", "from_the_text": "Binding for the 10D7 mouse antibody is shown left and the human/mouse chimeric 10D7 antibody and corresponding Fab is shown right.\nThe mouse 10D7 antibody described in examples 1-14 was modified to replace the constant region sequences of the heavy and light chains with corresponding human sequences."}, "[4]": {"test_system": "human TKCC02 xenograft tumours", "experiment": "PET/CT imaging of subcutaneous human TKCC02 xenograft tumours", "type": "in vivo, mouse", "conditions": "^89Zr labelled", "method": "PET/CT imaging was used to assess the efficacy with which the chimeric 10D7 antibody detected subcutaneous human TKCC02 xenograft tumours in mice. The chimeric antibody was labelled with the positron-emitting radionuclide ^89Zr as previously described (Zeglis B M et al., (2015) Jove-J Vis Exp (96): 52521). The labelled antibody was injected intravenously (3-5 MBq) into female NOD. Cg-Prkdc^scidIl2rg^tm1W/SzJ mice bearing subcutaneous xenografts of human TKCC02 pancreatic tumours. Imaging was performed on a Siemens Inveon preclinical PET/CT at 1, 24, 48, 72 and 144 hours post-injection."}, "[5]": {"test_system": "TKCC05 cells, control ShRNA or ShRNA-targeting CDCP1", "experiment": "Incucyte internalisation assay with FabFluor-pH Red labelled antibodies", "type": "cell-based, human", "conditions": "2 μg/ml, 8 h, scanning every 15 min", "method": "TKCC05 cells stably silenced for CDCP1 expression using an ShRNA-targeting CDCP1 or control ShRNA TKCC05 cells in 96 well/plate format were treated with 2 μg/ml of IgG isotype control, 10D7 or huma/mouse-10D7 pre-labelled with a pH-sensitive fluorescent dye (FabFluor-pH Red Antibody Labeling Reagent, Essen-Biosciences).\nTKC005 pancreatic cancer cells (5,000 cells expressing control ShRNA-[…]) or ShRNA-targeting CDCP1-[…]) were plated into 96 well plate in growth medium. When confluence reached ˜50%, cells were treated with 2 μg/ml of IgG isotype control, 10D7 or Chim hu/mu-10D7 pre-labelled with pH-sensitive fluorescent dye (FabFluor-pH Red Antibody Labelling Reagent, Essen-Biosciences). Fluorescence per cells were measured in real time using Incucyte S3 over 8h with scanning every 15 min."}}, "data": [{"molecule": "B1", "values": [{"measurement": "binding to CDCP1 expressing cells", "setting": "[1]", "result": "bind"}, {"measurement": "internalisation and degradation of CDCP1", "setting": "[2]", "result": "internalised and induce the degradation of CDCP1"}, {"measurement": "binding to CDCP1 expressing pancreatic cancer cells", "setting": "[3]", "result": "bound"}, {"measurement": "accumulation in the tumour compared with parent mouse 10D7 antibody", "setting": "[4]", "result": "significantly greater degree"}, {"measurement": "detection of CDCP1 expressing tumours in vivo", "setting": "[4]; 3-5 MBq intravenously", "result": "able to detect CDCP1 expressing tumours in vivo"}, {"measurement": "internalisation", "setting": "[5]", "result": "internalised specifically via CDCP1"}]}]}
